The values below come from publication PMC4336329 (PLoS ONE, 2015).

Each structure is given as a SMILES string. Hit rate of the full screen: of about 310,000 compounds, about 14,000 (4.5%) showed an effect of 50% or more. Effects have a minus sign here. This is one part of the list.
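Also: peak tail current of the secondary pulse compared with the same well before compound.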

The target of this test is human ether-à-go-go-related gene (hERG) potassium channel (human, UniProt Q12809). The test is described as follows: primary screen, population patch clamp on CHO cells stably expressing hERG.
human ether-à-go-go-related gene (hERG) potassium channel, sequence (Q12809 whole entry, looked up): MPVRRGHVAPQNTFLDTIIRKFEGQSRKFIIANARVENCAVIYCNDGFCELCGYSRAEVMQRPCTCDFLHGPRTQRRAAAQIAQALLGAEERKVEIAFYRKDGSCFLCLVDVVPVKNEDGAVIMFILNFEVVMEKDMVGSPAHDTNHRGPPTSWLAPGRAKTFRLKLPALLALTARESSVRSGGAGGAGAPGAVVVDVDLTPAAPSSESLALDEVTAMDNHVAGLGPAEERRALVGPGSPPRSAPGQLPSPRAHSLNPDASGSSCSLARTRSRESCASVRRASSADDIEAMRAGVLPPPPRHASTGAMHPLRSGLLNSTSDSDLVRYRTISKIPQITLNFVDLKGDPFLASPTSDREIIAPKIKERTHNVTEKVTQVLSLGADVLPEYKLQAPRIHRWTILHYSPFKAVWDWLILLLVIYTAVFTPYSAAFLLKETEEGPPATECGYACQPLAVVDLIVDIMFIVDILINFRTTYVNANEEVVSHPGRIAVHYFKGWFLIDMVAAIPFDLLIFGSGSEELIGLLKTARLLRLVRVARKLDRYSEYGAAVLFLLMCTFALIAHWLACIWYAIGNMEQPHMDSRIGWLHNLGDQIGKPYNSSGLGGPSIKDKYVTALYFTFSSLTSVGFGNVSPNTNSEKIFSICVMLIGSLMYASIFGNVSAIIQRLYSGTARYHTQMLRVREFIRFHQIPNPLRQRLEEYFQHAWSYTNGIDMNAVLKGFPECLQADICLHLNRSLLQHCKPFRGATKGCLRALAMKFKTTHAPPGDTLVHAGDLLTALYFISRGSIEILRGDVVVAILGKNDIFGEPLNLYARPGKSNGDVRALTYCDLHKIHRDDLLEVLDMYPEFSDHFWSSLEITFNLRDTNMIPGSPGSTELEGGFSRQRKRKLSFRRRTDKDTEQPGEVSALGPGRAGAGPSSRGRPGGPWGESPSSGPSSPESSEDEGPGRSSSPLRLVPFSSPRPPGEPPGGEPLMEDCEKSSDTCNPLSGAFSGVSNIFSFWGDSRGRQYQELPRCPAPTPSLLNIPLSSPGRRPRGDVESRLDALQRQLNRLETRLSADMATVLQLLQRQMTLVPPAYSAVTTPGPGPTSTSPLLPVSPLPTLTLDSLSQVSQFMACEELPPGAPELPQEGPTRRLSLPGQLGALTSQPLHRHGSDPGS
In the case of `C=CCn1c(SCC)nc2sc3c(c2c1=O)CCc1ccccc1-3`, the “hERG current change (%, negative = inhibition) at 10uM” value was 2.6%. In the case of `O=c1[nH][nH]c(=O)n1-c1ccccc1`, the “hERG current change (%, negative = inhibition) at 10uM” value worked out at 10.1%. Then `CCn1c(COc2ccc(Cl)cc2)nnc1SCC(=O)Nc1ccc2c(c1)OCO2`, with 3.98%. In the case of `COc1cccc(/C=C2\SC(N3CCC(C)CC3)=NC2=O)c1OC` it was -6.29%. For `CC(C)(CO)C(O)C(=O)NCCCO` (stereo not drawn), the “hERG current change (%, negative = inhibition) at 10uM” value amounted to 11.5%. Then `O=C(NCc1ccc(F)cc1)c1ccc(CS(=O)(=O)c2ccc(Br)cc2)o1`, with -17.3%.

For `COc1ccc(N2CCN(S(=O)(=O)c3cccc4nsnc34)CC2)cc1`, the “hERG current change (%, negative = inhibition) at 10uM” value was 3.48%. Consider `O=C(Nc1ccc(Oc2ccsc2C(=O)O)cc1)c1ccccc1F`, for which the “hERG current change (%, negative = inhibition) at 10uM” value is recorded as 10.2%. In the case of `N=c1c(C(=O)NCc2ccc(F)cc2)cc2c(=O)n3ccccc3nc2n1Cc1cccnc1` it was -76.2%. Then `N#Cc1cc2c(nc1SCC(=O)Nc1nccs1)CCCCC2`, with 0.217%; and `CCOC(=O)c1sc(NC(=O)CSc2n[nH]c(-c3ccc(Cl)cc3Cl)n2)c(C#N)c1C`, with -0.878%; and `CCOc1ccc(N(CC(=O)Nc2ccc(C)c(C)c2)S(=O)(=O)c2c(C)noc2C)cc1`, with 0.581%.

With `Nc1c(N2CCCC2)cc(Cl)c2nonc12`, the “hERG current change (%, negative = inhibition) at 10uM” value is -22.4%.

`CC1CCCC(NC(=O)CSc2nncs2)C1C` (stereo not drawn): the “hERG current change (%, negative = inhibition) at 10uM” value is -7.84%. In the case of `N#C/C(=C\c1ccc([N+](=O)[O-])o1)C(=O)Nc1ccc(F)cc1` it was 1.7%; in that of `CCN(CC(=O)NCc1cccs1)C(=O)CCc1c[nH]c2ccccc12`, -17.6%; in that of `CC1CCCCC1NC1CCN(C)CC1` (stereo not drawn), 23.9%. On to `O=C(c1ccc(NS(=O)(=O)c2ccc(F)cc2)cc1)N1CCOCC1`, for which the “hERG current change (%, negative = inhibition) at 10uM” value is recorded as 14.9%.

In the case of `CC1(C)Cc2nc3sc4c(SCC(=O)O)ncnc4c3cc2CO1`, the “hERG current change (%, negative = inhibition) at 10uM” value is 7.89%. In the case of `O=C(NCCCN1CCN(CCCNC(=O)c2cccc(Cl)c2)CC1)c1cccc(Cl)c1`, the “hERG current change (%, negative = inhibition) at 10uM” value is -74.4%. In the case of `COC(=O)C1=C(C)NC(=O)NC1c1ccc(OCC(=O)N2CCCCC2)cc1` (stereo not drawn) it was 22.4%; in that of `Cc1cc(C)c2c(c1)c(C)cc1nnc(SCC(=O)NCc3ccco3)n12`, -8.05%; in that of `CCCNC(=O)COC(=O)c1ccc(S(=O)(=O)N2CCCCCC2)cc1`, -13.5%. Then `Cl.O=C(Nc1ccc(C(=O)OC[C@@H]2CCCN3CCCC[C@H]23)cc1)c1cccc(Br)c1`, with -69.3%. In the case of `CNC(=S)Nc1ccc([N+](=O)[O-])c(C)c1` it was 13.8%.

`Cn1c(=O)cc(OCC(=O)Nc2ccccn2)c2ccccc21`: the “hERG current change (%, negative = inhibition) at 10uM” value was found to be 9.2%.

`CC(C)n1nc(C(=O)Oc2cc(Cl)ccc2Cl)c2ccccc2c1=O`: the “hERG current change (%, negative = inhibition) at 10uM” value worked out at 4.89%. In the case of `O=C(c1ccc2ccccc2c1)N1CCN(c2ccccn2)CC1` it was -20%; in that of `Cc1cc(=O)n2nc(N3CCCC3C(=O)NCCCN3CCCCC3)sc2n1` (stereo not drawn), 7.62%. In the case of `O=C(c1cccnc1)N1CCc2ccccc21` it was -3.38%; in that of `Cc1cccc(C)c1OCc1cc(C(=O)N2CCC(C3CCCCC3)C2)no1` (stereo not drawn), 11.4%.

In the case of `COC(=O)c1ccc(/C=N/N2CCN(Cc3ccccc3Cl)CC2)cc1`, the “hERG current change (%, negative = inhibition) at 10uM” value came to 5.88%. In the case of `COc1cc(/C=C/C(=O)OCC(=O)N2CC3(C)CC2CC(C)(C)C3)ccc1O` (stereo not drawn) it was -13.6%.

Turning to `CCN(CC)C(=O)c1ccc(NC(=O)c2ccc(-n3cncn3)c([N+](=O)[O-])c2)cc1`, the “hERG current change (%, negative = inhibition) at 10uM” value was -0.0451%. In the case of `COc1ccc(NC(=O)CN2C(=O)NC3(CCCC3)C2=O)cc1` it was 13.7%; in that of `COc1cccc(C(=O)NCC(=O)NCc2cc(=O)n(C)c(=O)n2C)c1OC`, 6.16%; in that of `CC(=O)OC[C@H]1O[C@@H](O/N=C(\C)CCN2CCCCc3nc(C)c(C)cc32)[C@H](OC(C)=O)[C@@H](OC(C)=O)[C@@H]1OC(C)=O`, -19.5%. For `CCOC(=O)N1CCC(N2CCN(S(=O)(=O)c3ccc4ccccc4c3)CC2)CC1.O=C(O)C(=O)O`, the “hERG current change (%, negative = inhibition) at 10uM” value was -6.5%. As for `CSc1nc(SCCN(C)C)c2c3c(sc2n1)COC(C)(C)C3`, the “hERG current change (%, negative = inhibition) at 10uM” value is -47%.

Take `CCOC(=O)c1c(NC(=S)Nc2cccc(C)c2)sc2c1CC(C)(C)SC2`: the “hERG current change (%, negative = inhibition) at 10uM” value worked out at 1.74%. In the case of `Cl.OC(COc1ccccc1)CN1CCN(CC(O)COc2ccccc2)CC1` (stereo not drawn) it was -61.7%; in that of `COc1ccc(NC(=O)COc2ccc(/C=N/NC(=O)c3cccnc3)cc2OC)cc1`, -11.9%.
